Experimental findings from the supplement of paper PMC8183993 are described below.

Structures can show the parent of a compound that is named as a salt. ± gives the standard deviation of the averaged measurements. Whole data set: some 3,200 compounds, median “nuclei count (viability) relative to DMSO” near 99, cut for the lowest 2% near 16. This is one part of the list.

The assay deals with U2OS. Put plainly: nuclei count (viability) relative to DMSO (% of DMSO); higher = more viable cells. The settings on record: 10 µM; 24 h. As to the method: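 Primary image-based screen in U2OS cells: compounds at 10 uM for 24 h, then a 1 h o-propargyl-puromycin (OPP) pulse, click labelling, and high-throughput microscopy. Mean cytoplasmic OPP intensity and nuclei count were normalised to DMSO wells within each plate (DMSO = 100) and averaged over triplicate plates.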
As to `CC(=O)OCOC(c1cc([N+](=O)[O-])ccc1Oc1ccc(Br)cc1)P(=O)(OCOC(C)=O)OCOC(C)=O` (stereo not drawn), the nuclei count is 102.
Compound `CN(C)Cc1cccc(N=C(c2ccccc2)c2c(O)[nH]c3cc(C(=O)N(C)C)ccc23)c1` returned a nuclei count of 73.2.
`C[C@@H]1C[C@H]2[C@@H]3C[C@H](F)C4=CC(=O)C=C[C@]4(C)[C@@]3(Cl)[C@@H](O)C[C@]2(C)[C@H]1C(=O)COC(=O)C(C)(C)C` [Clocortolone pivalate] gave a nuclei count of 115.
Under `CC1(C)C[C@@H]1C(=O)N/C(=C\CCCCSC[C@H](N)C(=O)O)C(=O)O` [Cilastatin sodium] stands 96.7.
As for `CC1(C)C[C@@H]1C(=O)N/C(=C\CCCCSC[C@H](N)C(=O)O)C(=O)O` [Cilastatin], the figure is 91.5.
Under `Cc1c(C)c2c(c(C)c1OC(=O)CCC(=O)O)CC[C@@](C)(CCC[C@H](C)CCC[C@H](C)CCCC(C)C)O2` [Tocopherol succinate] stands 102; under `Oc1cc2c(cc1O)CN(C(=S)NCCc1ccc(Cl)cc1)CCC2` [Capsazepine], 98.3; under `CCCCCCC(=O)OC1CC(C)(C)NC(C)(C)C1` [TMPH hydrochloride], 102.
Regarding `O=C1Cc2c([nH]c3ccc(Br)cc23)-c2ccccc2N1` [Kenpaullone], the nuclei count amounted to 64 ± 3.
`COc1ccc(CCN2CCN(CCCc3ccccc3)CC2)cc1OC` had a nuclei count of 110.
Take `CC[C@H]1OC(=O)C[C@@H](O)[C@H](C)[C@@H](O[C@@H]2O[C@H](C)[C@@H](O)[C@H](N(C)C)[C@H]2O)[C@@H](CCN2C[C@H](C)C[C@H](C)C2)C[C@@H](C)C(=O)/C=C/C(C)=C/[C@@H]1CO[C@@H]1O[C@H](C)[C@@H](O)[C@@H](OC)[C@H]1OC` [Tilmicosin]: the nuclei count worked out at 106.
Take `CNCCCC12CCC(c3ccccc31)c1ccccc12` [Maprotiline hydrochloride]: the nuclei count came out at 91.9 ± 2.
As for `CCc1c(O)cc(O)c(C(=O)c2ccc(OCCN3CCOCC3)c(OC)c2)c1CC(=O)N(CCOC)CCOC`, the figure is 78.1.
Under `NCC1CCN(c2nccc(-c3ccc4ccccc4c3)n2)CC1` stands 21.1; under `Cc1cn2cc(C(=O)N(C)CCO)cc(N[C@@H]3CCOc4cccc(C)c43)c2n1`, 104; under `Cc1coc2c1C(=O)C(=O)c1c-2ccc2c1CCCC2(C)C` [Tanshinone IIA], 101.
Under `CC(C)(C)n1nc(-c2cccc3ccccc23)c2c(N)ncnc21` [1-Naphthyl PP1] stands 89.4; under `COc1ccc2c(c1)c(CC(=O)N1CCOCC1)c(C)n2C(=O)c1ccc(Cl)cc1`, 100.
As for `OC(c1cc(C(F)(F)F)nc2c(C(F)(F)F)cccc12)C1CCCCN1` (stereo not drawn) [Mefloquine hydrochloride], the nuclei count was determined as 10.7.
On to `C[C@@H]1O[C@@H](OC[C@H]2O[C@@H](Oc3c(-c4ccc(OCCO)c(OCCO)c4)oc4cc(OCCO)cc(O)c4c3=O)[C@H](O)[C@@H](O)[C@@H]2O)[C@H](O)[C@H](O)[C@H]1O` [Troxerutin], for which the nuclei count was 106.
`CCN(CC)C(=O)/C(C#N)=C/c1cc(O)c(O)c([N+](=O)[O-])c1` [Entacapone] returned a nuclei count of 102.
As for `C[C@]12C=CC(=O)C=C1CC[C@H]1[C@@H]3C[C@@H](O)[C@](O)(C(=O)CO)[C@@]3(C)C[C@H](O)[C@@]12F` [Triamcinolone (Aristocort)], the figure is 87.1; as for `C[C@]12C=CC(=O)C=C1CC[C@H]1[C@@H]3C[C@@H](O)[C@](O)(C(=O)CO)[C@@]3(C)C[C@H](O)[C@@]12F` [Triamcinolone], 95.5; as for `CC1(C)O[C@@H]2C[C@H]3[C@@H]4CCC5=CC(=O)CC[C@]5(C)[C@@]4(F)[C@@H](O)C[C@]3(C)[C@]2(C(=O)CCl)O1` [Halcinonide], 98.5.
As for `CCN(CCN(C)C)C(=O)CNCc1cc(C(N)=O)ccn1`, the figure is 97.8.
Compound `CC(=O)O[C@H]1C[C@@H]2CC[C@@H]3[C@H](CC[C@@]4(C)[C@H]3C[C@H]([N+]3(C)CCCCC3)[C@@H]4OC(C)=O)[C@@]2(C)C[C@@H]1N1CCCCC1` [Vecuronium Bromide] registered a nuclei count of 108.
The compound `CC(=O)O[C@H]1C[C@@H]2CC[C@@H]3[C@H](CC[C@@]4(C)[C@H]3C[C@H]([N+]3(C)CCCCC3)[C@@H]4OC(C)=O)[C@@]2(C)C[C@@H]1N1CCCCC1` [Vecuronium bromide] yielded a nuclei count of 98.3.
`CCCCCCCC/C=C\CCCCCCCC(=O)NCCO` [Oleylethanolamide] gave a nuclei count of 107.
`CCCCCCCC/C=C\CCCCCCCC(=O)NCCO` [N-Oleoylethanolamide] returned a nuclei count of 105.
`CC(=O)NCC(=O)N[C@H](CCC(=O)O)C(=O)O` [N-Acetylglycyl-D-glutamic acid] had a nuclei count of 105.
Under `C[C@@H](O)[C@H]1C(=O)N2C(C(=O)O)=C(S[C@@H]3CN[C@H](C(=O)N(C)C)C3)[C@H](C)[C@H]12` [Meropenem] stands 105.9 ± 0.61.
Compound `O=c1c(-c2ccc(O)cc2)coc2cc(O)ccc12` [Daidzein] registered a nuclei count of 109.
As for `O=C(O)CCCCC(CCSCc1ccccc1)SCc1ccccc1` (stereo not drawn), the figure is 109; as for `CC1(C)CC[C@]2(C(=O)O)CC[C@]3(C)C(=CC[C@@H]4[C@@]5(C)CC[C@H](O)C(C)(C)[C@@H]5CC[C@]43C)[C@@H]2C1` [Oleanolic Acid (Caryophyllin)], 109; as for `CC(C)NC[C@H](O)COc1cccc2ccccc12` [(S)-propranolol hydrochloride], 103.
As for `CC(C)NC[C@H](O)COc1cccc2ccccc12` [(S)-(-)-Propranolol hydrochloride], the figure is 90.8; as for `CC(C)(C)c1nc(-c2cccc(NS(=O)(=O)c3c(F)cccc3F)c2F)c(-c2ccnc(N)n2)s1`, 106.4 ± 0.54; as for `CC(=O)N(OCc1ccccc1)[C@H]1c2cc(C#N)ccc2OC(C)(C)[C@H]1O`, 97.1.
Take `C[C@H]1O[C@@H](n2cc(F)c(=O)[nH]c2=O)[C@H](O)[C@@H]1O` [Doxifluridine]: the nuclei count came to 94.4.
As for `N[C@@H](Cc1cc(CP(=O)(O)O)cc(-c2ccccc2Cl)c1)C(=O)O`, the figure is 100.
For `OCC1OC(n2cnc3c(NC4CCCC4)nc(Cl)nc32)C(O)C1O` (stereo not drawn) [2-Chloro-N6-cyclopentyladenosine], the nuclei count turned out to be 93.5.
As for `OCCN1CCN(CCCN2c3ccccc3C=Cc3ccccc32)CC1` [Opipramol dihydrochloride], the nuclei count stood at 113.
`COc1cccc(Nc2c(C(N)=O)cnc3c(C)cc(S(=O)(=O)c4cccc(C(=O)N(C)C)c4)cc23)c1` had a nuclei count of 109.
As for `O=C(O)C=C1CCCc2ccccc2C1O` (stereo not drawn), the figure is 103; as for `CC(=O)CCCCn1c(=O)c2c(ncn2C)n(C)c1=O` [Pentoxifylline], 94.1; as for `CN1C(=O)OC(C)(C)C1=O` [Trimethadione], 95.3.
The compound `CN(C/C=C/c1ccccc1)Cc1cccc2ccccc12` [Naftifine hydrochloride] yielded a nuclei count of 110.
Under `COc1cc2c(cc1OCCCN1CCCC1)N=C(N)C21CCC1` stands 94.7.
Under `O=C(c1ccc(/C=C/c2n[nH]c3ccccc23)cc1)N1CCNCC1` stands 41.9; under `C/C(=C\C(=O)Nc1ccccc1C(=O)O)c1ccc2ccccc2c1`, 95.4.
The compound `C[C@]12CC[C@@H](O)C[C@@H]1CC[C@@H]1[C@@H]2CC[C@]2(C)C=CC[C@@H]12` [3a, 5a-Androstenol] yielded a nuclei count of 90.5.
The compound `Cc1ccc(-n2sc(=O)n(Cc3ccc(F)cc3)c2=O)cc1` registered a nuclei count of 99.8.
Under `O=C(NCCN1CCOCC1)c1ccc(Cl)cc1` [Moclobemide] stands 90.8; under `Cc1cc(Cl)ccc1OCCCC(=O)NO` [Droxinostat], 103; under `CN(C)CCOc1ccc(-c2nc(-c3ccncc3)c(-c3ccc4c(c3)CC/C4=N\O)[nH]2)cc1`, 73.6 ± 4.5.
On to `CN(C)CCCSC(=N)N` [Dimaprit dihydrochloride], for which the nuclei count worked out at 102 ± 1.6.
In turn, `C[C@H](Cc1cc2c(c(C(N)=O)c1)N(CCCO)CC2)NCCOc1ccccc1OCC(F)(F)F` [Silodosin (Rapaflo)] had a nuclei count of 94.1.
As for `C=CCNC(=O)c1cc([N+](=O)[O-])cc2c(=O)[nH]c(Nc3ccc(Cl)c(Cl)c3)nc12`, the figure is 96.4; as for `Cc1onc(-c2c(F)cccc2Cl)c1C(=O)N[C@@H]1C(=O)N2[C@@H]1SC(C)(C)[C@@H]2C(=O)O` [Flucloxacillin sodium], 109; as for `CCN1CCCC(OC(=O)C(c2ccccc2)c2ccccc2)C1` (stereo not drawn) [Piperidolate hydrochloride], 88.
As for `O=C(O)C1=CO[C@@H](O[C@@H]2O[C@H](CO)[C@@H](O)[C@H](O)[C@H]2O)[C@@H]2C(CO)=CC[C@H]12` [Geniposidic acid], the figure is 101; as for `Cc1ccnc(NS(=O)(=O)c2ccc(NC(=O)Nc3ccc(S(=O)(=O)Nc4nccc(C)n4)cc3)cc2)n1`, 98.2.
Under `CC(C)c1ccc2c(c1)CC[C@H]1[C@](C)(CN)CCC[C@]21C` [Lylamine hydrochloride] stands 27.7; under `COc1c(C)c2c(c(O)c1C/C=C(\C)CCC(=O)O)C(=O)OC2` [Mycophenolic acid], 69.7.
For the compound `NS(=O)(=O)c1cc(Cl)c(Cl)c(S(N)(=O)=O)c1` [Dichlorphenamide], the nuclei count was 107.
`CS(=O)(=O)c1ccc(-c2cnc(N)c(C(=O)Nc3ccccc3)n2)cc1` gave a nuclei count of 92.1 ± 1.1.
Under `CN1CCC(Nc2ncc3ncnc(Nc4ccc(F)c(Cl)c4)c3n2)CC1` [BIBX 1382 dihydrochloride] stands 87; under `COC(=O)Nc1ccc(-c2nc(N3CCOCC3)c3cnn(C4CCN(C(=O)OC)CC4)c3n2)cc1`, 85.9.
Under `CNC[C@H](O)[C@@H](O)[C@H](O)[C@H](O)CO` [Meglumine] stands 107; under `Nc1ccc(S(=O)(=O)Nc2cnc3ccccc3n2)cc1` [Sulfaquinoxaline sodium salt], 86.3.
In turn, `NCCCC(O)(P(=O)(O)O)P(=O)(O)O` [Alendronate (Fosamax)] showed a nuclei count of 109.
Under `NCCCC(O)(P(=O)(O)O)P(=O)(O)O` [Alendronate] stands 103.
As to `NCCCC(O)(P(=O)(O)O)P(=O)(O)O` [Alendronate sodium], the nuclei count was found to be 102.
